Results published in PubChem BioAssay AID2071 (Sanford-Burnham Center for Chemical Genomics, 2009).
This is one part of the list. These are further read-outs of the screen, such as a control signal, another cell line or another target. No call is given for them. The list favours compounds with an active or inconclusive main result.

Assay: NALP1 inflammasome inhibitors in reconstituted yeast, colorimetric, S. cerevisiae, triplicate retest (AID 2071)
Conditions: S. cerevisiae NALP1/ASC/caspase-1 growth, X-gal OD620, 72 h, at 20 µM, stronger effect = higher value

Row | SMILES | inhibition
1 | O=C(c1ccccc1)C(CN1CCCC1)c1ccccc1 (stereo unspecified) | 110%
2 | Fc1ccc(C(OCCN2CCCC2)c2ccc(Br)cc2)cc1 (stereo unspecified) | 54.9%
3 | Nc1c2c(nc3sc4c(c13)CCCCC4)CCCC2 | 97.9%
4 | CN1C2CCC1/C(=C/c1ccccn1)C(=O)/C2=C\c1ccccn1 | 99.4%
5 | C[C@H]1C[C@@H](C)C(=O)[C@@H]([C@H](O)CC2CC(=O)NC(=O)C2)C1 | 112%
6 | c1ccc2sc(NC3=NCCN3)nc2c1 | 116%
7 | Cc1cccc(N2C(=O)NC(=O)/C(=C/c3ccc([N+](=O)[O-])o3)C2=O)c1 | 62.1%
8 | CNC(=O)Oc1ccc2ncccc2c1 | 57.5%
9 | CC1(C)C[C@H]2C=C(C=O)[C@]3(C=O)C[C@]3(C)[C@H]2C1 | 105%
10 | CN1/C(=C\C=C\C2=[N+](C)c3ccc4ccccc4c3C2(C)C)C(C)(C)c2ccccc21 | 96.3%
11 | CCCCN(Cc1ccccc1)C1CCN(CCc2ccccc2)CC1 | 50.5%
12 | CN[C@H]1C[C@H]2O[C@@](C)([C@H]1OC)n1c3ccccc3c3c4c(c5c6ccccc6n2c5c31)C(=O)NC4 | 103%
13 | CCOc1cc(CNCCc2c[nH]c3ccccc23)cc(Cl)c1OCC | 103%
14 | O=C1/C(=C/c2cc3c(cc2Cl)OCO3)N2CCC1CC2 | 54.4%
15 | CC1CCCC(C)N1/N=C/c1c[nH]c2ccc(Br)cc12 (stereo unspecified) | 90.8%
16 | Nc1c2c(nc3sc4c(c13)CCCC4)CCCCC2 | 60.8%
